# Assay results published in PubChem BioAssay AID602332 (National Center for Advancing Translational Sciences (NCATS), 2012).
# Values joined by “and” are separate entries in the source; they are usually repeats but may differ in a detail not shown here. Equal values may be shown once. The whole screen tested about 420,000 compounds, of which about 75 (0.02%) were called active. The shares of active, inactive and inconclusive entries below differ from those in the screen. Calls come from the whole dose curve; as a rule, active = well fitted activation curve with a large enough effect; inconclusive = small, poorly fitted or top-dose-only effect; inactive = no such curve, though single readings can be large or run the other way. Potencies of inconclusive entries are doubtful fits and often do not repeat.
# Experiment: qHTS for Inducers of the Endoplasmic Reticulum Stress Response (ERSR) in Human Glioma: qHTS; note: nearly all actives have a fitted effect of over 35% in size; for activation: % of control where 0% means no effect
# Settings: U87-MG GRP78 promoter luciferase reporter, 16 h; activation: hits give high values
# Summary of the method: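 ERSR induction read as luciferase luminescence (Bright-Glo, 10 min at room temperature) in stably transfected human U87-MG glioma cells exposed to compounds for 16 h, using GRP78 as sensor.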
# Potency is the fitted concentration of half-maximal effect; tags give direction and shape of the fitted curve.
SMILES,Potency,activation
COCC(=O)Nc1nnc(SCC(=O)NCc2cccs2)s1,"inconclusive: 50.1 µM [activator, single point]",
CC1CCc2c(sc3nc(CSc4n[nH]c(N)n4)[nH]c(=O)c23)C1 (stereo not given),"inconclusive: 2.24 µM [activator, full curve, poor fit]",
CN(C)c1ccc(C=C2C(=O)NC(=S)NC2=O)cc1,"inconclusive: 50.1 µM [activator, single point]",
O=C(C1CC(c2ccc(Cl)c(Cl)c2)=NO1)N1CCC2(CC1)OCCO2 (stereo not given),"inconclusive: 11.2 µM [activator, partial curve, poor fit]",
Cc1cc(C=C2C(=O)N(C)C(=S)N(C)C2=O)c(C)n1C1CCCC1,"inconclusive: 44.7 µM [activator, partial curve, poor fit]",
CC(=O)C1=C(O)[C@@H]2[C@@H]3c4c[nH]c5cccc(c45)C[C@@H]3C(C)(C)N2C1=O,"inconclusive: 15.8 µM [activator, partial curve, poor fit]",
Fc1ccc2c(c1)nnn2C1CCN(Cc2c(Cl)cccc2Cl)CC1,,inactive: 2.4%
ClC1=C(Cl)C(Cl)(C2(Cl)C(Cl)=C(Cl)C(Cl)=C2Cl)C(Cl)=C1Cl,"inconclusive: 2.51 µM [activator, full curve, poor fit]",
CC(C)Cc1[nH]c(=O)c(C#N)c2c1CCC2,,inactive: -4.56%
ClCCN(CCCl)c1ccc(/C=C/c2ccnc3ccccc23)cc1,,inactive: 2.68%
ClC1=C(Cl)C2(Cl)C3C4C=CC(C4)C3C1(Cl)C2(Cl)Cl (stereo not given),,inconclusive: 124% [activator]
N#Cc1c(Cl)nc(Cl)c2c1CCN(Cc1ccccc1)C2,"inconclusive: 44.7 µM [activator, partial curve, poor fit]",
COCCCn1c(N)c(C(=O)Nc2sc3c(c2C(=O)OC)CCCC3)c2nc3ccccc3nc21,,inactive: -1.24%
CC/C(=C\C=C\[C@@H]1C=C[C@@H]2CCC[C@H]2[C@@H]1C(=O)c1ccc[nH]1)[C@@H]1O[C@@H]([C@@H](C)C(=O)O)CC[C@@H]1C,"inconclusive: 50.1 µM [activator, single point]",
Cc1c2ccncc2c(C)c2c1[nH]c1ccccc12,"inconclusive: 44.7 µM [activator, partial curve, poor fit] and inconclusive: 26.1 µM [activator, partial curve, poor fit]",
O=c1[nH]c(O)c(N=Nc2ccc(Cl)c(S(=O)(=O)Nc3ccccc3Cl)c2)c(=O)[nH]1,"inconclusive: 44.7 µM [activator, single point]",
O=C(Cc1ccccc1)N1CCN(C/C=C/c2ccccc2)CC1,"inconclusive: 44.7 µM [activator, partial curve, poor fit]",
C=C(C)[C@H]1O[C@H]2CC[C@@]3(C)[C@@](O)(CC[C@H]4[C@@H]5OC(C)(C)[C@H]6C[C@@H]7C(=C)Cc8c(Cl)cc9[nH]c(c5c9c8[C@@]76O)[C@@]43C)[C@]23O[C@@H]3[C@H]1O,"inconclusive: 25.1 µM [activator, full curve]",
CNc1ccc2oc(C[C@H]3O[C@@]4(CC[C@H]3C)O[C@H]([C@H](C)C(=O)c3ccc[nH]3)[C@H](C)C[C@H]4C)nc2c1C(=O)O,"inconclusive: 0.464 µM [activator, full curve]",
COc1ccc(C=C2C(=O)N(C)C(=O)N(C)C2=O)cc1COc1ccc(NC(C)=O)cc1,,inactive: -4.42%

SMILES,Potency,activation
CN(C)C(=O)Oc1cc(OC(=O)N(C)C)cc([C@@H](O)CNC(C)(C)C)c1,"inconclusive: 25.1 µM [activator, partial curve, poor fit]",
Cc1ccc(/C=C2\C(=O)NC(=S)N(c3ccc(F)cc3)C2=O)s1,"inconclusive: 8.91 µM [activator, full curve, poor fit]",
CNC(=O)c1cccn(Cc2cc(C(F)(F)F)cc(C(F)(F)F)c2)c1=O,,inactive: 0.669%
Cc1ccc(-c2nn3c(C)nnc3c3ccccc23)cc1S(=O)(=O)NCCO,"inconclusive: 12.6 µM [activator, single point]",
c1nc[n]([Sn]([CH]2CCCCC2)([CH]2CCCCC2)[CH]2CCCCC2)n1,"inconclusive: 28.2 µM [activator, single point]",
COC(=O)C1=C(c2ccc(OCc3ccccc3)cc2)C[C@@H]2CC[C@H]1N2C(=O)NCCCCc1ccccc1,"inconclusive: 50.1 µM [activator, single point]",
O=C(O)CCn1cc(C=C2C(=O)NC(=S)NC2=O)c(-c2cc3ccccc3oc2=O)n1,,inactive: -1.84%
CC(C)=CCC[C@]1(C)[C@@H](CC=C(C)C)C[C@@]2(CC=C(C)C)C(=O)[C@]1(C(=O)C(C)C)C(=O)C(CC=C(C)C)=C2O,"inconclusive: 50.1 µM [activator, single point]",
O=[N+]([O-])NC1=NCN(Cc2ccco2)CN1Cc1ccco1,"inconclusive: 63.1 µM [activator, single point]",
CCCCC/C=C\C/C=C\C/C=C\C/C=C\CCCCOC(CO)CO,"inconclusive: 28.2 µM [activator, single point]",
O=C(CSc1nnc2c3c4c(sc3ncn12)CCCC4)NCc1ccco1,"inconclusive: 28.2 µM [activator, single point]",
COc1ccc(Cn2c(O)c(/C=N/NC(=O)c3ccccc3O)c(=O)[nH]c2=O)cc1,"inconclusive: 56.2 µM [activator, single point]",
CC(=O)N1C[C@H](O)C[C@H]1C(=O)O,"inconclusive: 28.2 µM [activator, single point]",
C/C(=C\C(=O)c1ccc(Br)cc1)NCc1ccccc1,"inconclusive: 25.1 µM [activator, full curve, poor fit]",
CC(COc1ccccc1)N(CCCl)Cc1ccccc1 (stereo not given),"inconclusive: 41.4 µM [activator, partial curve, poor fit]",
Oc1ccccc1O,"inconclusive: 13.1 µM [activator, full curve]",
O=C(N/N=C/c1ccc([N+](=O)[O-])o1)c1cc([N+](=O)[O-])cc([N+](=O)[O-])c1O,"inconclusive: 50.1 µM [activator, single point]",
CC(C)N1C(=O)/C(=C/C=C/c2ccco2)C(=O)N(Cc2ccco2)C1=O,"inconclusive: 11.2 µM [activator, single point]",
COc1ccc(C2SCC(=O)Nc3c2c(C)nn3-c2ccccc2)cc1 (stereo not given),,inactive: -7.96%
Cc1ccccc1N1C(=O)NC(=O)/C(=C\c2ccc3c(c2)CCCN3Cc2ccccc2)C1=O,"inconclusive: 50.1 µM [activator, single point]",
